Laboratory results taken from the RNAGym collection of RNA variant scans (doi:10.7554/elife.90254).
The source gives no read counts; variants with many changes may rest on few reads.

B1: LINE1-mini (parent)
chain: GGCAGAGCUCAACACAGCGUGGCAAAGUGGCUGUGGCUAGACUGCC

Variants of: B1
Test: self-cleavage, relative activity (ratio to wild type); higher = more cleavage; in vitro, sequencing; the parent is a self-cleaving ribozyme

Variant	self-cleavage
UGGAGAGCUCAAUACACCGUGGCAAAGUGGCUGUGGCUAGAUUGUC [G1U C3G C13U G17C C42U C45U]	0.03
GGCAGAGCUCAACACACCCUGGCAAAGUGGCUGUGGCUAGACUGAC [G17C G19C C45A]	0.07
GGCAGAGCUAAACACAGGGUGGCAAAGUGGCUGUUGCUAUACUGCC [C10A C18G G35U G40U]	0.05
GACAAAGAUCAACACAGUGUGGCAAAGUGGCUGUGGCUAGACUGCC [G2A G5A C8A C18U]	2.24
GACAGAGCUUAAAACAGCGUGGCAAAGUGGCUGUGGCUAGACUGCC [G2A C10U C13A]	0.1
GGCAGGGCUCAAAACAGCGUGGCAAAGUGGAUGUGGCUAGAUUGCC [A6G C13A C31A C42U]	0
GGCAGAGCUUAACACAGGUUUGAAAAGUGGCUGUGGCUAGACUGCC [C10U C18G G19U G21U C23A]	0.34
GGCAGAGCUCAACCCAGCGUGGCAAAGUGGAUGUGGCUAGACUGUC [A14C C31A C45U]	0.05
GGAAGAGCUCAACACACGGUGGCAAAGUGGCUGUGGCUAGACUGCC [C3A G17C C18G]	0.45
GGCAGAGCACAACACACCGUGGCAAAUCGGAUUUGGCGAGACUGUC [U9A G17C G27U U28C C31A G33U U38G C45U]	0.17
GGCAGAGUUCAACACAGCGUGGCAAAGUGGCUGUUGCUAGACUGAC [C8U G35U C45A]	0.13
GGCAGAAAUCAACACAGCGUGGCAAAGUGGUUGUGGCUAGACUGCC [G7A C8A C31U]	1.23
GGCAGAGCACAACACAGCGUGGCAAUGUGGCUGUAGCUAGACUGCC [U9A A26U G35A]	0.02
UGCAGAGCUCAACAGAGCGUGGCAAAGUGGCUGUGGCUAGACUGCA [G1U C15G C46A]	0.14
GGCAGAGCUCAACACACCGUGGCAAAAUGGCUGUCGCUAGACUGCC [G17C G27A G35C]	0.01
GGCCGAGCUCAACACAGCGUGGCUAAGUGGCUAUGGCUAGACUGCC [A4C A24U G33A]	0.05
GGCAGAGCUCAGCACAAUGUGGCGAAGUGGCUGUGGCUUGACUGCC [A12G G17A C18U A24G A39U]	0
GGCAGAGCUCAUCAUAGCGUGGCAAAGCGGCUGUGGCUAGACUGCC [A12U C15U U28C]	0.14
CGCAGAGCUCAACACAGCGUGGCAAAGUGGUUGUGGCUAGAGUGCU [G1C C31U C42G C46U]	0.01

Variant	self-cleavage
GGCAGAGCUCAAAUCAGCGUGGCAAACUGGCUGUGGCUAGACUGCC [C13A A14U G27C]	0.03
AGCAGAGCUCAACACAGCGUUCCUAAGUGGCUGUGGUUAGACUGCC [G1A G21U G22C A24U C37U]	0.04
GUGAGAGCUCAACACAGUUUGGCAAAGUGGCUGUGGCUAGACUGCA [G2U C3G C18U G19U C46A]	0.06
GGCAGAGCUCAACACAGCUUGGCAGUGUGGCUGUGGCUAGACUGCC [G19U A25G A26U]	0.15
GGCAAAGCUCAACACAGCGUUGCAAAGUGGCUGUGGCUGGACUGCC [G5A G21U A39G]	0.02
GACAGAGCUCAACAAAGCGUGGCAAAGUGGCUGUGGCUAGAGUGCC [G2A C15A C42G]	0.37
GGCAGAGCUCAACAUAGCGUGGCAAAGUGGCUAUAGCUAGACUGCC [C15U G33A G35A]	0.07
GGCAGACCUCAACACAGCGUGGCAAAGAGGCUGCGGCUAAACUUCC [G7C U28A U34C G40A G44U]	0
UGCAGAGGUCAACACAGCGUGGCAAAGUGGCUGUGGCUAGACAGCG [G1U C8G U43A C46G]	0.03
GGCAGAACUCAACACAACGUGGCAAAGUGCCUGUGGCUCGACUGCC [G7A G17A G30C A39C]	0.15
GGCAGAGCUCAACACAGCGUGGCAAAGUUGAUGUGGCUAUACUGCC [G29U C31A G40U]	0.03
GUCAUAGCUCAACACAGCGUGGCAAAGUUGCUGUGGCUAGACUGCC [G2U G5U G29U]	0.02
GGCAGAGCUCAACAUAGCGUGGCAAAGUUGCUGUGGCUAGGCUGCC [C15U G29U A41G]	0.34
GGCACAGGUGAACACAGCGUGGCAAUGGGGCUUUGGCUAGACUGCC [G5C C8G C10G A26U U28G G33U]	0.01
GCCAGAGCUCAAUUAAGCUUGGCUAAGUGGCUAUUGCUAGUCUGCC [G2C C13U A14U C15A G19U A24U G33A G35U A41U]	0.09
UGCAGAGCUCAACACAGCGUGGCAAAGUGACUGUGGCUAUACUGCC [G1U G30A G40U]	0.02
GGAAGAGUUCAACACACCGUGGCAAAGUGGUUGUGGCUAGAUUCCC [C3A C8U G17C C31U C42U G44C]	0.07
GGUAGAGCUCACCACAGCGUGGCAAAGAGGCUGUAGCUAGACUGCC [C3U A12C U28A G35A]	0.03
GGCAGAGCUCAACACUUAGUGGCAAAGUGGGUGUGGCUAGACUGCC [A16U G17U C18A C31G]	0.02

Variant	self-cleavage
GGCAGAGCUCAAAACAGCGUGGCAAAGUGCCUGUGCAUAGACUGCC [C13A G30C G36C C37A]	0.16
GGCAGAGCUCAACACAGCGUGGCAAAGUUGCUGUGGCUAGAAUGUC [G29U C42A C45U]	0.28
GGCAGAGCUCAACACUGCGUGGCAAUGUGGCUGUGGCUAGACUGUC [A16U A26U C45U]	0.14
GGCAGAGCUCAACACAGCGUGGCAAUCCGGCUGUGGCUAGAAUGCC [A26U G27C U28C C42A]	0.13
CGCAGAGCUCAACACCUCGUGGGAAAGUGGCUGUGGCAAAACUGCC [G1C A16C G17U C23G U38A G40A]	0.01
GGCAGAGCUCAACACAGCGUGGUAAAAUGACUGUGGCUAGACUCCC [C23U G27A G30A G44C]	0.74
GGCACAGCUCAACACAGCUUGGCAAAGUGGCUGUGGCUAGACCGCC [G5C G19U U43C]	0.01
GGCAGAGCUCAACACAGCGUGUAAAAGUGGCUCUGGAUAGACGGCG [G22U C23A G33C C37A U43G C46G]	0.02
GGCAGAGAUCAACACAGCGUGGUUAAGUGGCUAUGGCUAGACUGCC [C8A C23U A24U G33A]	0.18
GGCAGAGCUCUACACAGCGUGGCAAAGUUGCUGUGCCUACACUGCC [A11U G29U G36C G40C]	0.02
GGCAGCGCUCAACACCGCGUGGCAAAGUGGCUGUGGAUAGACUGCC [A6C A16C C37A]	0.01
GCCUGAGUUCAACACAGCUUGGCAAAAAGGCUGUCGCUCGACUGCC [G2C A4U C8U G19U G27A U28A G35C A39C]	0.12
GGCAGAGCUCAACACAGGGUGGCAAAGUGGCUGAGGCUUGACUGCC [C18G U34A A39U]	0.01
GGCAGAGCCCAACACAACCUGCCAAAGUGGCUGUGUCUAGUCUGCC [U9C G17A G19C G22C G36U A41U]	0
GGCAGAGCUCAACACAGCGUUCCAUAGUGGCUGUGGCUAGACUGCC [G21U G22C A25U]	2.88
GGCAGAGCUCAACACAUCGCGGCAAAGUGGCUUUGGCUAGACUGUC [G17U U20C G33U C45U]	0.04
GGCAGAGAUCAACACAGCGAGGCAAAGUCGCUGUGGCUAGACUCCC [C8A U20A G29C G44C]	0.04
GGGAGAGCUCAACACAGCGUCGCAAAGUGGCUGUGGCUAGACAACC [C3G G21C U43A G44A]	0.09
